This is one part of the list. These are noisy estimates, calculated here from bound and input reads.

This assay deals with T1, Pho4 (S. cerevisiae) (UniProt P07270).
T1 sequence: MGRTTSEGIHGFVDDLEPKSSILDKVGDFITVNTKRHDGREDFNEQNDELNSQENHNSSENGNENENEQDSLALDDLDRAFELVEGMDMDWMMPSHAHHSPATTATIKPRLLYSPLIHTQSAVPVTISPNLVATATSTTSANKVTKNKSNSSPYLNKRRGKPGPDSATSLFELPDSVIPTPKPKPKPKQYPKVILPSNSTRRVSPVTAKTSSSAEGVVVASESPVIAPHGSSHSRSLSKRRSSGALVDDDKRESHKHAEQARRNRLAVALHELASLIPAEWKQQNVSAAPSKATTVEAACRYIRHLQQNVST
The assay is described as follows: relative binding free energy (BET-seq); higher = weaker binding. The following applies: reference: library average.
For AGATGCACGTGTCTTT, the “relative binding free energy” value was -0.03 kcal/mol. Take TGAAACACGTGTCTGT: the “relative binding free energy” value turned out to be 0.13 kcal/mol. For TGAATCACGTGCTTTA, the “relative binding free energy” value is 0.13 kcal/mol.

For TAGTACACGTGGTGAT, the “relative binding free energy” value was found to be 0.03 kcal/mol. On to TGGGTCACGTGTGTTC, for which the “relative binding free energy” value amounted to 0.17 kcal/mol. In the case of GTTGTCACGTGTGCTA, the “relative binding free energy” value turned out to be 0.13 kcal/mol. Take GCGGGCACGTGGTGTG: the “relative binding free energy” value was -0.16 kcal/mol. AATGTCACGTGGGGAA: the “relative binding free energy” value stood at 0.02 kcal/mol.

Turning to GGGATCACGTGCTTTT, the “relative binding free energy” value turned out to be 0.26 kcal/mol.

Take TATGGCACGTGGCGGG: the “relative binding free energy” value is -0.23 kcal/mol. As for GTTTCCACGTGGGTGC, the “relative binding free energy” value is -0.07 kcal/mol. On to ATGGGCACGTGGGCAA, for which the “relative binding free energy” value was -0.07 kcal/mol.

For the sequence GTGCGCACGTGTTGGC, the “relative binding free energy” value amounted to 0.04 kcal/mol. As for TGCTTCACGTGGTCAG, the “relative binding free energy” value came out at 0.06 kcal/mol. The value for GGTGGCACGTGCCGTT was -0.08 kcal/mol. As for ATTGGCACGTGTGGCG, the “relative binding free energy” value turned out to be 0.04 kcal/mol. As to TAGTTCACGTGATAGT, the “relative binding free energy” value stood at 0.28 kcal/mol. With AGCTTCACGTGGTGGC, the “relative binding free energy” value is 0.3 kcal/mol. For the sequence TCTTTCACGTGGGTGA, the “relative binding free energy” value is 0.31 kcal/mol. As to CTTGGCACGTGTACGT, the “relative binding free energy” value is -0.05 kcal/mol. In the case of AAGTTCACGTGGTTGG, the “relative binding free energy” value stood at 0.22 kcal/mol.

For the sequence TTATTCACGTGATGAG, the “relative binding free energy” value was 0.29 kcal/mol. The value for TAAAGCACGTGGAATG was 0 kcal/mol.

Take ATTGTCACGTGTTGAC: the “relative binding free energy” value was -0.04 kcal/mol.

Regarding TGGGACACGTGTGCGA, the “relative binding free energy” value is -0.05 kcal/mol.

For the sequence TTAGGCACGTGAGTCA, the “relative binding free energy” value was determined as 0 kcal/mol.

ATGTTCACGTGTGAGT: the “relative binding free energy” value amounted to 0.24 kcal/mol.

Take ATTGTCACGTGTACTT: the “relative binding free energy” value was found to be 0.09 kcal/mol. Turning to AAAGGCACGTGTAGTG, the “relative binding free energy” value is -0.12 kcal/mol. With TGTGGCACGTGTATTC, the “relative binding free energy” value is 0.04 kcal/mol.

Take GGAGACACGTGGGTGT: the “relative binding free energy” value was -0.04 kcal/mol. The figure for CGGGTCACGTGCTGGG is 0.12 kcal/mol; for AACGGCACGTGTCGGG it is -0.03 kcal/mol. Turning to TTGCTCACGTGGATTT, the “relative binding free energy” value is 0.19 kcal/mol. Take ATCCGCACGTGGGGTA: the “relative binding free energy” value is -0.11 kcal/mol. For the sequence GGTCGCACGTGAGGTC, the “relative binding free energy” value was 0.21 kcal/mol. As for ATATGCACGTGGTAGG, the “relative binding free energy” value is -0.16 kcal/mol. Consider GGCAGCACGTGGGTTC, for which the “relative binding free energy” value is -0.05 kcal/mol. GTGTGCACGTGCCAGG: the “relative binding free energy” value is -0.07 kcal/mol. With TTTTACACGTGGTGAT, the “relative binding free energy” value came to 0.08 kcal/mol. The value for TTATGCACGTGATGAG was 0.02 kcal/mol.

For AAGGGCACGTGTGGAT, the “relative binding free energy” value was -0.12 kcal/mol.

As for GGTGGCACGTGGATAC, the “relative binding free energy” value was -0.1 kcal/mol.

On to TGGTTCACGTGTTTTC, for which the “relative binding free energy” value was 0.35 kcal/mol. In the case of TGAAACACGTGCTGGT, the “relative binding free energy” value is -0.01 kcal/mol. Take TTAAGCACGTGATTGA: the “relative binding free energy” value came to 0.12 kcal/mol.

As for TTGTTCACGTGTGAGT, the “relative binding free energy” value was found to be 0.33 kcal/mol. The value for AGGTACACGTGATATG was 0.08 kcal/mol. On to GGTAACACGTGAGTAT, for which the “relative binding free energy” value is 0.24 kcal/mol. As for TAGTGCACGTGCAGTG, the “relative binding free energy” value is -0.14 kcal/mol.

Consider GGGAGCACGTGATTTG, for which the “relative binding free energy” value was 0.13 kcal/mol.

For ATATGCACGTGAGCTT, the “relative binding free energy” value came out at 0.05 kcal/mol. Regarding GGGAGCACGTGCGGTA, the “relative binding free energy” value is -0.14 kcal/mol. As for CTTGTCACGTGAGGTG, the “relative binding free energy” value was determined as 0.27 kcal/mol.

Consider CTTCGCACGTGTTGTT, for which the “relative binding free energy” value was -0.11 kcal/mol. The value for GTTTACACGTGTCGAT was 0.21 kcal/mol; that for CGTTACACGTGTATGT was 0.06 kcal/mol. The figure for TTAGTCACGTGTAATA is 0.11 kcal/mol; for TTCGGCACGTGATTAT it is -0.2 kcal/mol; for TCAATCACGTGATTTT it is 0.3 kcal/mol. Take CATTACACGTGGGATT: the “relative binding free energy” value worked out at 0.14 kcal/mol. For the sequence ATTGTCACGTGTGCAT, the “relative binding free energy” value was 0.13 kcal/mol.

Take GCGGGCACGTGGCGGG: the “relative binding free energy” value is -0.14 kcal/mol. The figure for TTACACACGTGTATTT is -0.05 kcal/mol. AGTTTCACGTGGTTGA: the “relative binding free energy” value is 0.12 kcal/mol. Turning to TTATTCACGTGTGTTG, the “relative binding free energy” value turned out to be 0.31 kcal/mol. The value for AGGGGCACGTGATAAG was -0.04 kcal/mol; that for GGTTCCACGTGCTTGG was 0.17 kcal/mol. For TTGAGCACGTGGCAGT, the “relative binding free energy” value is -0.16 kcal/mol. On to AGTAGCACGTGGGCAA, for which the “relative binding free energy” value was -0.17 kcal/mol. As for GTATTCACGTGGTTCG, the “relative binding free energy” value worked out at 0.24 kcal/mol. Regarding AGCGACACGTGTGAGT, the “relative binding free energy” value was 0.1 kcal/mol. As to TAGGACACGTGGGTCA, the “relative binding free energy” value is -0.13 kcal/mol. As to GGTTGCACGTGGAAGA, the “relative binding free energy” value amounted to 0.12 kcal/mol.

As for GCTACCACGTGGGGGG, the “relative binding free energy” value is -0.23 kcal/mol. Regarding GCGGACACGTGCTGGT, the “relative binding free energy” value was 0.11 kcal/mol. Turning to AGTTACACGTGATTAG, the “relative binding free energy” value came out at 0.13 kcal/mol.

Regarding GATGTCACGTGGTTGA, the “relative binding free energy” value came to 0.11 kcal/mol. The figure for TTTCTCACGTGTGGCT is 0.23 kcal/mol; for TTTGACACGTGTTCAT it is 0.05 kcal/mol. Turning to TTGAGCACGTGGTGTC, the “relative binding free energy” value was -0.27 kcal/mol. With GGATTCACGTGGAGAG, the “relative binding free energy” value was found to be 0.28 kcal/mol.

On to TTGGGCACGTGGTCCT, for which the “relative binding free energy” value is -0.17 kcal/mol. Regarding TTGAACACGTGCGATT, the “relative binding free energy” value is 0.16 kcal/mol. In the case of CGGTCCACGTGGTTGT, the “relative binding free energy” value was -0.12 kcal/mol. For the sequence GTGTGCACGTGTTGTG, the “relative binding free energy” value is 0.01 kcal/mol. The value for GTAGTCACGTGTATGG was 0.17 kcal/mol; that for TAAGGCACGTGGATGC was 0.04 kcal/mol; that for CGTAGCACGTGGTATG was -0.17 kcal/mol.

Regarding GGGTACACGTGTTACT, the “relative binding free energy” value was determined as 0.19 kcal/mol.

Consider TTAGCCACGTGGGAAG, for which the “relative binding free energy” value was -0.1 kcal/mol. The value for TATTGCACGTGTAACG was 0.16 kcal/mol; that for ACGGTCACGTGGGAGT was 0.04 kcal/mol; that for AAGTGCACGTGGGACT was -0.03 kcal/mol. With TTTATCACGTGGTAAT, the “relative binding free energy” value was found to be 0.01 kcal/mol. The value for GTGTGCACGTGGCGAG was -0.1 kcal/mol.

With GAATGCACGTGTTAAG, the “relative binding free energy” value was -0.01 kcal/mol.

CTGGCCACGTGGATGG: the “relative binding free energy” value was -0.08 kcal/mol.

On to TTAAGCACGTGGTGGA, for which the “relative binding free energy” value is -0.23 kcal/mol. Consider TATTGCACGTGCCGTT, for which the “relative binding free energy” value was -0.11 kcal/mol. In the case of CAGTGCACGTGGTCGT, the “relative binding free energy” value was -0.18 kcal/mol. Consider GTTGACACGTGGAAGG, for which the “relative binding free energy” value was determined as 0.14 kcal/mol. Consider CGTTCCACGTGTTTGT, for which the “relative binding free energy” value is 0.07 kcal/mol. As to GGGGACACGTGAATAA, the “relative binding free energy” value stood at 0.47 kcal/mol. On to GTGCTCACGTGTGGTT, for which the “relative binding free energy” value was 0.26 kcal/mol. On to GGTATCACGTGTTTGA, for which the “relative binding free energy” value came to 0.18 kcal/mol. In the case of GATTCCACGTGTGGTG, the “relative binding free energy” value is 0.01 kcal/mol. GCGGACACGTGGCGTG: the “relative binding free energy” value is -0.11 kcal/mol.

For GGTGTCACGTGAAAAT, the “relative binding free energy” value was determined as 0.41 kcal/mol. The figure for AATTGCACGTGTTGGG is 0.01 kcal/mol. Turning to TAGGGCACGTGGGAAC, the “relative binding free energy” value is -0.2 kcal/mol. As for TGTTTCACGTGCTAGG, the “relative binding free energy” value is 0.18 kcal/mol.

As to ATAGGCACGTGTCAAT, the “relative binding free energy” value turned out to be 0.01 kcal/mol. Take CGGTGCACGTGGACTG: the “relative binding free energy” value was -0.05 kcal/mol. Regarding CGTGTCACGTGGCGTA, the “relative binding free energy” value was -0.05 kcal/mol.
